In PubChem BioAssay (Tox21):
Active and inactive are the calls of the source. Unless noted, calls come from the whole dose curve; as a rule, active = well fitted curve in the direction sought with a large enough effect in the repeat runs; inconclusive = weak or mixed curves; inactive = no such curve, though single readings can be large; an effect the other way counts as inactive or inconclusive.

Experiments:
[1] = target: Aryl hydrocarbon receptor (Homo sapiens) (UniProt P35869); test: qHTS assay to identify small molecule that activate the aryl hydrocarbon receptor (AhR) signaling pathway (AID 743085); note: nearly all actives have a fitted effect of over 15% in size; note: potency is the fitted concentration of half-maximal effect
Outline: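 AhR agonist activity is inferred from enhanced light output of a DRE-controlled firefly luciferase reporter in HepG2 cells, measured with ONE-Glo following 24 h treatment at 37C.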

[2] = target: Androgen receptor (Homo sapiens) (UniProt P10275); test: qHTS assay to identify small molecule agonists of the androgen receptor (AR) signaling pathway (AID 743036; active = well fitted activation curve with a large enough effect in the signal ratio in the repeat runs, with a control signal flat, not every such curve was filed as active; inconclusive = weak or mixed curves, or effect the other way; inactive = no such curve, though single readings can be large or run the other way; the % refers to the signal ratio; note: % is set by controls: 0 for no effect and ±100 for the full control effect); details: HEK293 AR-UAS-bla GripTite, beta-lactamase FRET ratio, 16 h; activation: at 62.4 µM (top of the series) unless noted
Outline: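 Cell-based FRET reporter assay: HEK293 line with a UAS-beta-lactamase construct, compounds added in DMSO, 16 h exposure at 37C, then 2 h substrate step at room temperature and fluorescence intensity read.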

[3] = target: Glucocorticoid receptor (Homo sapiens) (UniProt P04150); test: qHTS assay to identify small molecule agonists of the glucocorticoid receptor (GR) signaling pathway (AID 720691; active = well fitted activation curve with a large enough effect in the signal ratio in the repeat runs, not every such curve was filed as active; inconclusive = weak or mixed curves, or effect the other way; inactive = no such curve, though single readings can be large or run the other way; the % refers to the signal ratio; note: potency is the fitted concentration of half-maximal effect); details: GR-bla HeLa, beta-lactamase reporter ratio, 18 h; activation: at 62.4 µM (top of the series) unless noted
Outline: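 Cells: GR-bla HeLa, endogenous GR with stably integrated GRE-beta-lactamase reporter. Treatment 18 h, 37 C, compounds delivered in DMSO. Detection via LiveBLAzer B/G FRET substrate, 2 h RT, fluorescence intensity.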

[4] = qHTS assay to identify small molecule antagonists of the glucocorticoid receptor (GR) signaling pathway - cell viability counter screen (AID 720693); details: GR-bla HeLa viability, CellTiter-Glo luminescence, 18 h, with 5 nM dexamethasone present; viability change, negative = cytotoxic: at 58.5 µM (top of the series); note: nearly all actives have a fitted effect of over 55% in size; note: potency is the fitted concentration of half-maximal effect
[5] = target: Estrogen receptor (Homo sapiens) (UniProt P03372); test: qHTS assay to identify small molecule agonists of the estrogen receptor alpha (ER-alpha) signaling pathway (AID 743075; calls by dose curve;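 note: HEK293 GripTite cells with ER-alpha and UAS-driven beta-lactamase reporter; potency is the fitted concentration of half-maximal effect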); details: HEK293 ER-alpha-UAS-bla, beta-lactamase FRET ratio, 18 h; activation: at 70.1 µM (top of the series)
[6] = qHTS assay for small molecules that induce genotoxicity in human embryonic kidney cells expressing luciferase-tagged ATAD5 - cell viability (AID 651634; calls by dose curve; note: nearly all actives have a fitted effect of over 25% in size; note: potency is the fitted concentration of half-maximal effect)
Outline: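 After 15.5 hr incubation with compound at 37C, 5% CO2, HEK293T ATAD5-luciferase cells received CellTiter-Fluor reagent; fluorescence intensity was quantified following 30 min at 37C.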

[7] = target: Aromatase (Homo sapiens) (UniProt P11511); test: qHTS assay to identify aromatase inhibitors (AID 743083); note: potency is the fitted concentration of half-maximal effect; nearly all actives have a fitted effect of over 55% in size
[8] = target: Peroxisome proliferator-activated receptor gamma (Homo sapiens) (UniProt P37231); test: qHTS assay to identify small molecule antagonists of the peroxisome proliferator-activated receptor gamma (PPARg) signaling pathway (AID 743191; calls by dose curve; note: % is set by controls: 0 for no effect and ±100 for the full control effect; nearly all actives have a fitted effect of over 30% in size); details: HEK293H PPARg-UAS-bla, beta-lactamase ratio, antagonist, 17 h; ratio activity, negative = inhibition: at 62.6 µM (top of the series) unless noted
Outline: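 GeneBLAzer PPARg UAS-bla HEK293H cells, 5 h post-plating, exposed to compounds 17 h at 37C. LiveBLAzer B/G FRET substrate added for 1 h at room temperature; beta-lactamase reporter read by fluorescence intensity.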

[9] = target: Vitamin D3 receptor (Homo sapiens) (UniProt P11473); test: qHTS assay to identify small molecule antagonists of the vitamin D receptor (VDR) signaling pathway (AID 743223; active = well fitted inhibition curve with a large enough effect in the signal ratio in the repeat runs, not every such curve was filed as active; inconclusive = weak or mixed curves, or effect the other way; inactive = no such curve, though single readings can be large or run the other way; the % refers to the signal ratio; note: % is set by controls: 0 for no effect and ±100 for the full control effect); details: VDR-UAS-bla HEK293T, beta-lactamase FRET ratio, 16 h; activity change, negative = inhibition: at 61 µM (top of the series) unless noted
Outline: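 Reporter line VDR-bla; stimulus 1alpha,25-(OH)2 vitamin D3, 3 nM final; compound co-addition, 16 h 37C/5% CO2; LiveBLAzer B/G substrate 2 h RT; fluorescence intensity.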

[10] = qHTS assay to identify small molecule antagonists of the vitamin D receptor (VDR) signaling pathway - cell viability counter screen (AID 743225); details: VDR-bla HEK293T viability, CellTiter-Glo luminescence, 16 h; viability change, negative = cytotoxic: at 61 µM (top of the series) unless noted; note: % is set by controls: 0 for no effect and ±100 for the full control effect; nearly all actives have a fitted effect of over 50% in size
Outline: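 Parallel cytotoxicity test: VDR-UAS-bla HEK 293T, 3 nM (final) 1-alpha,25-dihydroxyvitamin D3 with test compound, 16 h, 37C. Endpoint is CellTiter-Glo luminescence in the same wells.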

[11] = qHTS assay to identify small molecule agonists of the estrogen receptor beta (ER-beta) signaling pathway - cell viability counter screen (AID 1259380); note: nearly all actives have a fitted effect of over 30% in size; note: potency is the fitted concentration of half-maximal effect
Outline: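 Steps: plate ER-beta-UAS-bla HEK293T cells, rest 6 hr; add compounds in DMSO; incubate 16 hr at 37C, 5% CO2; add FRET substrate 2 hr; add CellTiter-Glo, wait 30 min at room temperature; read luminescence.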

[12] = target: Androgen receptor (Homo sapiens) (UniProt P10275); test: qHTS assay to identify small molecule antagonists of the androgen receptor (AR) signaling pathway (AID 743035; active = well fitted inhibition curve with a large enough effect in the signal ratio in the repeat runs, not every such curve was filed as active; inconclusive = weak or mixed curves, or effect the other way; inactive = no such curve, though single readings can be large or run the other way; the % refers to the signal ratio; note: % is set by controls: 0 for no effect and ±100 for the full control effect); details: HEK293 AR-UAS-bla, R1881-stimulated, beta-lactamase FRET, 16 h
Outline: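 Quantitative HTS of the Tox21 10K library used HEK293 AR-UAS-bla cells stimulated with R1881 alongside compound for 16 h at 37C, followed by beta-lactamase FRET detection (LiveBLAzer B/G, 2 h, RT).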

[13] = qHTS assay for small molecule agonists of the antioxidant response element (ARE) signaling pathway (AID 743202; active = well fitted activation curve with a large enough effect in the signal ratio in the repeat runs, not every such curve was filed as active; inconclusive = weak or mixed curves, or effect the other way; inactive = no such curve, though single readings can be large or run the other way; the % refers to the signal ratio; note: % is set by controls: 0 for no effect and ±100 for the full control effect); details: HepG2 ARE-bla reporter, beta-lactamase FRET, 16 h; activation: at 73.3 µM (top of the series) unless noted
Outline: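 HepG2 ARE-bla cells; 16 h treatment at 37 C; FRET-based beta-lactamase fluorescence read after 2 h substrate incubation at room temperature.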

[14] = target: Estrogen receptor beta (Homo sapiens) (UniProt Q92731); test: qHTS assay to identify small molecule antagonists of the estrogen receptor beta (ER-beta) signaling pathway (AID 1259378; active = well fitted inhibition curve with a large enough effect in the signal ratio in the repeat runs, not every such curve was filed as active; inconclusive = weak or mixed curves, or effect the other way; inactive = no such curve, though single readings can be large or run the other way; the % refers to the signal ratio; note: % is set by controls: 0 for no effect and ±100 for the full control effect); details: ER-beta-UAS-bla HEK293T, beta-lactamase FRET ratio, 16 h; activity, negative = inhibition: at 92.4 µM (top of the series) unless noted
Outline: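 ER-beta-UAS-bla HEK293T cells in 2% charcoal-stripped FBS medium treated with compound plus 1nM final 17-beta-estradiol for 16 hr at 37C. Beta-lactamase reporter read by FRET substrate fluorescence after 2 hours at room temperature.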

[15] = Caspase-3/7 induction in CHO-K1 cells by small molecules, qHTS cell viability counter screen (AID 1346979); note: nearly all actives have a fitted effect of over 35% in size; note: potency is the fitted concentration of half-maximal effect
Outline: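 CellTiter-Fluor viability check, qHTS format: wild-type CHO-K1, 16hr compound treatment, 1hr reagent incubation, fluorescence read.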

[16] = target: Cytochrome P450 2C9 (Homo sapiens) (UniProt P11712); test: Cytochrome P450 Family 2 Subfamily C Member 9 (CYP2C9) small molecule antagonists: luciferase reporter qHTS assay (AID 1671198); note: potency is the fitted concentration of half-maximal effect; nearly all actives have a fitted effect of over 50% in size
Outline: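 P450-Glo proluciferin substrate with CYP2C9 enzyme; 10 min RT preincubation, then NADPH regeneration 1 h at 37C; luciferin detection reagent 20 min RT, luminescence in relative luminescence units.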

[17] = target: Cytochrome P450 1A2 (Homo sapiens) (UniProt P05177); test: Cytochrome P450 Family 1 Subfamily A Member 2 (CYP1A2) small molecule antagonists: luciferase reporter qHTS assay (AID 1671199); note: % is set by controls: 0 for no effect and ±100 for the full control effect; nearly all actives have a fitted effect of over 50% in size
Outline: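 Steps: enzyme-substrate mix dispensed; test compounds and furafylline control pinned in; 10 min room temperature; NADPH regeneration solution added, 1 h; reaction stopped with luciferin detection reagent; luminescence read after 20 min.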

[18] = activity change, negative = inhibition: at 58.5 µM (top of the series) unless noted
Tags give direction and shape of the fitted curve or compound fluorescence and quenching.

UniProt P35869, sequence (P35869 whole entry, looked up): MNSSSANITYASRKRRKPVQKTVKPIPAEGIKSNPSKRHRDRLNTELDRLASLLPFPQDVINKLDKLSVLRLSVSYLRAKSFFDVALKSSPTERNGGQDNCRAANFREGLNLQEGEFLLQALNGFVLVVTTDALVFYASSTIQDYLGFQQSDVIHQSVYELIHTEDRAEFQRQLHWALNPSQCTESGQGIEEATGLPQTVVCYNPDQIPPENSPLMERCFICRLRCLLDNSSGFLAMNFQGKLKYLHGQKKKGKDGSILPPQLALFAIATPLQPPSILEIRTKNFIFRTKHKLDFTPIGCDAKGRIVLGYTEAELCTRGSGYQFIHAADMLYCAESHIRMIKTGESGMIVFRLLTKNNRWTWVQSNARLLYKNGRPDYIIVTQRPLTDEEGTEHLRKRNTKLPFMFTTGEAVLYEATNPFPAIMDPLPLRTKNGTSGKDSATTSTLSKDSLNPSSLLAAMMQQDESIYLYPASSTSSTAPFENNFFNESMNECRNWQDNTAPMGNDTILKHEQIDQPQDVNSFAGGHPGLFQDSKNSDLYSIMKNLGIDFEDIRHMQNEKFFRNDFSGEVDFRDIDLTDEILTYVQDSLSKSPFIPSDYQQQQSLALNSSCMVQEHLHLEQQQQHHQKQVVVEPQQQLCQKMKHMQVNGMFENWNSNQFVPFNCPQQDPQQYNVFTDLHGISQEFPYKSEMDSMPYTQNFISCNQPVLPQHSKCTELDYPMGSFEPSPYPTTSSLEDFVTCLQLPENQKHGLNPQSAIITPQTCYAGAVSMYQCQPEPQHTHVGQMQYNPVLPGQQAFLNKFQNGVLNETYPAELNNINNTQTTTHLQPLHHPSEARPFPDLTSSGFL
UniProt P10275, sequence (P10275 whole entry, looked up): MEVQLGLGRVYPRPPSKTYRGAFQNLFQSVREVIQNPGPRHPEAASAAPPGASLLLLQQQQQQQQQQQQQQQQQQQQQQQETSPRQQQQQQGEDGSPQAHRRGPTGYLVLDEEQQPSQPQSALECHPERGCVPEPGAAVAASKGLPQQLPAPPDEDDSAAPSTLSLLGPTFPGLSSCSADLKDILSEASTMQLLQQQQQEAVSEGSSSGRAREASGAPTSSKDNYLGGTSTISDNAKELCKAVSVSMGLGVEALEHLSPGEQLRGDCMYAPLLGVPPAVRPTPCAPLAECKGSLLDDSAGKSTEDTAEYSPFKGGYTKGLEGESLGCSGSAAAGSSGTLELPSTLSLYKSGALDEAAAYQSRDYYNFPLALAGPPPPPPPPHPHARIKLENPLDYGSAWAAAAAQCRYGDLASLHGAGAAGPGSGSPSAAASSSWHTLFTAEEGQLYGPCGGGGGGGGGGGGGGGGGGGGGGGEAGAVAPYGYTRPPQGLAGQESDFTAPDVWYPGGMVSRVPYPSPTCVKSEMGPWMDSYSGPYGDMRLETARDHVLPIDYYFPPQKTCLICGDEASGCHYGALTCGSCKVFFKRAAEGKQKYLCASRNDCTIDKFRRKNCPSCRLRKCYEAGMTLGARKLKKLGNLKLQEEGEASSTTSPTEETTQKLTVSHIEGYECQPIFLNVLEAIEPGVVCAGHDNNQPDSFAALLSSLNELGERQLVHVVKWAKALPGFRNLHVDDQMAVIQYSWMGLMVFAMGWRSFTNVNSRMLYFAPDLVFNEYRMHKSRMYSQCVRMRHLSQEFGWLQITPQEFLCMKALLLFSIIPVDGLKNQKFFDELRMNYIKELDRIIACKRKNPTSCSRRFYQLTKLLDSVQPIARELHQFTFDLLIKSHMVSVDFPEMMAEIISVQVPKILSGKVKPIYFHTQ
UniProt P37231, sequence (P37231 whole entry, looked up): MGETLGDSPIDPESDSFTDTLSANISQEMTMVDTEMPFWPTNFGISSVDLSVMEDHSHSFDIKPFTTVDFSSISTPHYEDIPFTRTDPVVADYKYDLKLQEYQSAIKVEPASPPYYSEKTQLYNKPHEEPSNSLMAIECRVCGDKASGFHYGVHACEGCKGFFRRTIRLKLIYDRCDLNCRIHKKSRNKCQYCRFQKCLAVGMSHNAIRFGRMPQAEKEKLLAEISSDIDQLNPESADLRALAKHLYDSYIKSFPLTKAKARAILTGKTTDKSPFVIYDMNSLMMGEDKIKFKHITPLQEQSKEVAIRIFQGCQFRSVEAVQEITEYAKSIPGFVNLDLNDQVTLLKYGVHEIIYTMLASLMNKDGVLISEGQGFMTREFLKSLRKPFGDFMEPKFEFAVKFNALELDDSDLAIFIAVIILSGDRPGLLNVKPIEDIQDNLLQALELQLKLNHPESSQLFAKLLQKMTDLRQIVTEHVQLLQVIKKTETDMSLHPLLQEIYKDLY
UniProt P11473, sequence (P11473 whole entry, looked up): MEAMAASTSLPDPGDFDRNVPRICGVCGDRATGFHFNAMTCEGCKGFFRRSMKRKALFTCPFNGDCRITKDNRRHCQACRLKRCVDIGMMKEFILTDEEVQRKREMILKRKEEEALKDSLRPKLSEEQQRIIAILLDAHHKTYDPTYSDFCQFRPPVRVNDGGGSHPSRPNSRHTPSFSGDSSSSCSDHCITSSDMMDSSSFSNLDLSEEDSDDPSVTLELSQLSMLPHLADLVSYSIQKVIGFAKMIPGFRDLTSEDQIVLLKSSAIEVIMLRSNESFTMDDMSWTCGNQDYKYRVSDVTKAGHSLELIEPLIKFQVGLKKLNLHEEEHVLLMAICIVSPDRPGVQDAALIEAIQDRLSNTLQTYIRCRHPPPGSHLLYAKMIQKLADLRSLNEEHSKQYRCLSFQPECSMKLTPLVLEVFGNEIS
UniProt P03372, sequence (P03372 whole entry, looked up): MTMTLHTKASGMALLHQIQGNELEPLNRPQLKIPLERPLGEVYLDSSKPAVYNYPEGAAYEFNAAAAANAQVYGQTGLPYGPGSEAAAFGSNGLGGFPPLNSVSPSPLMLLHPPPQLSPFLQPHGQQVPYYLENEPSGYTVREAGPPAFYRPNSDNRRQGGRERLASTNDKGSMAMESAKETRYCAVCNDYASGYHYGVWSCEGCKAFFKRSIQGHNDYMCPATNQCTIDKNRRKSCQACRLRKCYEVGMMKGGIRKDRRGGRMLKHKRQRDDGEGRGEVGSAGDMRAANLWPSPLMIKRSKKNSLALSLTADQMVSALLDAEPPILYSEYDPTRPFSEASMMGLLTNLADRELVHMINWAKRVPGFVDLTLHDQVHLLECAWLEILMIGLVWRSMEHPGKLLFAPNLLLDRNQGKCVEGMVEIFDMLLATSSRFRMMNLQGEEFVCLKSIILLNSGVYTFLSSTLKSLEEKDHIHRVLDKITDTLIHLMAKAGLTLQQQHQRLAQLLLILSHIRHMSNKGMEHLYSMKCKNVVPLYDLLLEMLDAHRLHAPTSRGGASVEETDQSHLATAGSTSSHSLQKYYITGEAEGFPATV
UniProt P04150, sequence (P04150 whole entry, looked up): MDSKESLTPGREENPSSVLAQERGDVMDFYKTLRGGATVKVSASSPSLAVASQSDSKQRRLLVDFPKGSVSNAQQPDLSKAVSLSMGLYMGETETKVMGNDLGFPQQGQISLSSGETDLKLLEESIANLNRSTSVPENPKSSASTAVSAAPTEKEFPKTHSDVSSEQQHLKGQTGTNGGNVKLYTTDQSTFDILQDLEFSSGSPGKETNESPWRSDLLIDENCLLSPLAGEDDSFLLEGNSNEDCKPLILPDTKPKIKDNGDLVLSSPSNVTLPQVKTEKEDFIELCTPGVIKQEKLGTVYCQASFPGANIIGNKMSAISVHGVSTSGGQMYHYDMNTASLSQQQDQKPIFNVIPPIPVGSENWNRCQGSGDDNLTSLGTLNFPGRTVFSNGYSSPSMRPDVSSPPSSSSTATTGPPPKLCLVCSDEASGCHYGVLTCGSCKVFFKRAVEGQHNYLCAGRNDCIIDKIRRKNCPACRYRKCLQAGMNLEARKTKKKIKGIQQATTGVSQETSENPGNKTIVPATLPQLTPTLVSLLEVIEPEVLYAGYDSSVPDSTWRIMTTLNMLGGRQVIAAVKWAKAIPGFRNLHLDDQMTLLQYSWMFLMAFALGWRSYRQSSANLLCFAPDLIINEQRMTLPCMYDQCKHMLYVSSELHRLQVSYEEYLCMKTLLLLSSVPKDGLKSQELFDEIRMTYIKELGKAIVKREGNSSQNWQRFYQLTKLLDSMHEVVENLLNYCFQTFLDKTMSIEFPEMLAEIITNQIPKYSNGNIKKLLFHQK
UniProt P11511, sequence (P11511 whole entry, looked up): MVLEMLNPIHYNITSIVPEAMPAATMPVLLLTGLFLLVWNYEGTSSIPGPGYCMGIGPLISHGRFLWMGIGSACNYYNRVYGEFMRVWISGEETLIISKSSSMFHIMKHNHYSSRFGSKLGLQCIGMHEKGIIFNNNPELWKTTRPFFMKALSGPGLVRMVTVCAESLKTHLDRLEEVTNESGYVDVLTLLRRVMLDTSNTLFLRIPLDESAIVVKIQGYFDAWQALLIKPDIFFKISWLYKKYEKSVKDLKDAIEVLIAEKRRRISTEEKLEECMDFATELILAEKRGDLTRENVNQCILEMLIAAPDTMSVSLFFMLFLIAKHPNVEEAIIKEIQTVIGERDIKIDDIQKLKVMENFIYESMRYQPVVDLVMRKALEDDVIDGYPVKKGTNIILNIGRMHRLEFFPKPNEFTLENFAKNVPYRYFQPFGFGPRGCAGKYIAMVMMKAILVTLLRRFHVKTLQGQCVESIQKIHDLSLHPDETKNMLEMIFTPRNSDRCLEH

CCOC(=O)c1c[nH]c2cc(OCC(C)C)c(OCC(C)C)cc2c1=O
Potency [1]: inconclusive: 29.8 µM [activator, partial curve]

CC(C)CCC[C@@H](C)[C@H]1CC(=O)C2=C3CC[C@H]4C[C@@H](O)CC[C@]4(C)[C@H]3CC[C@@]21C
Potency [2]: inactive

CCNC(=O)[C@@H]1CCCN1C(=O)[C@H](CCCN=C(N)N)NC(=O)[C@H](CC(C)C)NC(=O)[C@@H](Cc1c[nH]c2ccccc12)NC(=O)[C@H](Cc1ccc(O)cc1)NC(=O)[C@H](CO)NC(=O)[C@H](Cc1c[nH]c2ccccc12)NC(=O)[C@H](Cc1cnc[nH]1)NC(=O)[C@@H]1CCC(=O)N1
Potency [3]: inconclusive: 13.4 µM [cytotoxic, full curve] | Potency [4]: active: 19 µM

CNC(C)CCC=C(C)C (stereo not drawn)
Potency [1]: inconclusive: 16.8 µM [activator, partial curve]

O=C(O)c1cc(O)c2c(c1)[O][Bi][O]2
Potency [3]: inactive | Potency [5]: active: 0.012 µM [inconclusive] | Potency [1]: inconclusive: 33.5 µM [activator, partial curve, poor fit]

O=C(CCCN1CCC(n2c(=S)[nH]c3ccccc32)CC1)c1ccc(F)cc1
Potency [6]: inconclusive: 23.7 µM [falling, partial curve] | Potency [4]: inconclusive: 9.52 µM [cytotoxic, single point] | Potency [7]: inconclusive: 18.8 µM [inhibitor, partial curve, poor fit] | Potency [1]: active: 11.9 µM

O=C(Cc1cccs1)N[C@@H]1C(=O)N2C(C(=O)[O-])=C(C[n+]3ccccc3)CS[C@H]12
Potency [1]: inconclusive: 33.5 µM [activator, partial curve, poor fit]

C/C=C(/CC[C@@H](C)[C@H]1CC[C@H]2C3=CC[C@H]4[C@H](C)[C@@H](O)CC[C@]4(C)[C@H]3CC[C@]12C)C(C)C
Potency [6]: inactive

CC(CC(c1ccccc1)c1ccccc1)NC(C)(C)C (stereo not drawn)
Potency [1]: inactive

CN(C)CCOc1ccccc1Cc1ccccc1 (tested in a mixture with another compound)
Potency [4]: inactive

CCCC(=O)O[C@]1(C(=O)COC(=O)CC)[C@@H](C)C[C@H]2[C@@H]3CCC4=CC(=O)C=C[C@]4(C)[C@@]3(F)[C@@H](O)C[C@@]21C
Potency [1]: inconclusive: 33.5 µM [activator]

Cc1ccc(C2(O)CCN(CCCC(=O)c3ccc(F)cc3)CC2)cc1
Potency [1]: inconclusive: 26.6 µM [activator, partial curve, poor fit]

CO[C@@]1(NC(=O)C2SC(=C(C(N)=O)C(=O)O)S2)C(=O)N2C(C(=O)O)=C(CSc3nnnn3C)CS[C@@H]21 (stereo partly drawn)
Potency [4]: inconclusive: 1.02 µM [rising, single point]

CC(C)(C)CC(=O)OCC(=O)[C@@]12OC(C)(C)O[C@@H]1C[C@H]1[C@@H]3CCC4=CC(=O)C=C[C@]4(C)[C@@]3(F)[C@@H](O)C[C@@]12C
Potency [5]: inconclusive: 0.535 µM [single point]

COCc1ccc(COC)cc1
Potency [8]: inactive | Potency [9]: inactive

CCN1CCN(C(=O)N[C@@H](C(=O)N[C@@H]2C(=O)N3[C@@H]2SC(C)(C)[C@H]3C(=O)O)c2ccccc2)C(=O)C1=O
Potency [8]: inactive | Potency [10]: inactive | Potency [11]: inconclusive: 33.5 µM [rising, partial curve, poor fit]

Nc1ccc(S(=O)(=O)Nc2ccc(Cl)nn2)cc1
activity change, negative = inhibition [12, 18]: inconclusive: 4.15% | activity change, negative = inhibition ([12]; at 27 µM (top of the series)): inactive: -5.25% | activation [13]: inconclusive: -12.9% | Potency [14]: inactive | Potency [15]: inactive | Potency [16]: inconclusive: 24.5 µM [inhibitor, partial curve]

Cc1ccsc1C(=CCCN1CCC[C@@H](C(=O)O)C1)c1sccc1C
Potency [12, 18]: inactive | ratio activity, negative = inhibition [8]: inconclusive: 15.7% | activation [13]: inconclusive: 14.4% | activity change, negative = inhibition [9]: inconclusive: 12.9% | Potency [11]: inactive | Potency [15]: inconclusive: 26.6 µM [rising, partial curve, poor fit] | Potency [17]: inactive
